Test results taken from article PMC4336329 (PLoS ONE, 2015).
The campaign covered roughly 310,000 compounds. About 2,200 (0.71%) showed an effect of 50% or more. The effect is printed as a negative number. Some of the results follow.

biological target: human ether-à-go-go-related gene (hERG) potassium channel (human, UniProt Q12809); experiment: primary screen, population patch clamp on CHO cells stably expressing hERG
Sequence (Q12809 whole entry, looked up): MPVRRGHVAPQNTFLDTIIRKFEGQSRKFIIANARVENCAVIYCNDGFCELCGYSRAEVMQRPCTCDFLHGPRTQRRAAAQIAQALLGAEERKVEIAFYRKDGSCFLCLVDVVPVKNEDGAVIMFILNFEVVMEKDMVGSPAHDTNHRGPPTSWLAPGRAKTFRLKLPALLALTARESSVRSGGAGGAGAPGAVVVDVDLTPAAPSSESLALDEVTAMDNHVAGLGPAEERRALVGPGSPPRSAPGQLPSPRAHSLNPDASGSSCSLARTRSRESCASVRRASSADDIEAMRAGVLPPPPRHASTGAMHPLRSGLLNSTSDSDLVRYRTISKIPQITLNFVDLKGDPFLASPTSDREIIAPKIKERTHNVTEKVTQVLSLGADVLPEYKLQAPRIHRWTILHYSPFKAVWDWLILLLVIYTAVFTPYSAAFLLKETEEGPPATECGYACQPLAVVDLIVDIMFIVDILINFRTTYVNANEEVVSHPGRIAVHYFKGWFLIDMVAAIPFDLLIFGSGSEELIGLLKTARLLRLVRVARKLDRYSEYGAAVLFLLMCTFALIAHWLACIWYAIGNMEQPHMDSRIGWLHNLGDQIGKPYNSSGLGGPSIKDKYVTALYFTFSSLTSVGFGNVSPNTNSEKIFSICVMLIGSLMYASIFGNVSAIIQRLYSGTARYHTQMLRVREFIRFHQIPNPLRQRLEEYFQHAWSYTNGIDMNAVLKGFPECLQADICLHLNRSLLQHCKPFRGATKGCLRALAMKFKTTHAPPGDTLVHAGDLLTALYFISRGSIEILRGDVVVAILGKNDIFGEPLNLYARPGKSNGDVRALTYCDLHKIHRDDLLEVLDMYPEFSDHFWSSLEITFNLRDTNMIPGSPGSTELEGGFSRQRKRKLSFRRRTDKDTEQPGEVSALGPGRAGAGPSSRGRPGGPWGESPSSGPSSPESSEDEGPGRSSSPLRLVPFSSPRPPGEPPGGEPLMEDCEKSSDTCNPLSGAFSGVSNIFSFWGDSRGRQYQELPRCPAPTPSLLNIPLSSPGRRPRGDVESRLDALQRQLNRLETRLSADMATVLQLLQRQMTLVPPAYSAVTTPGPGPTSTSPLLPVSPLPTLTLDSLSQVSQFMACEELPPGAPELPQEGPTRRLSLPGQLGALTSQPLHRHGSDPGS

Question: With `Cc1nc([N+](=O)[O-])c(Br)n1CC(=O)c1ccc(Br)cc1` as the compound, how does the “hERG current change (%, negative = inhibition) at 1uM” value read?
Answer: Its value is -6.05%.

Question: How did the “hERG current change (%, negative = inhibition) at 1uM” value turn out when `Cc1ccc(C(=O)N2N=C(CC(C)C)CC2(O)C(F)(F)F)o1` (stereo not shown) was run?
Answer: The value was 11.4%.

Question: With `Cc1nn2cc(-c3ncc(C(F)(F)F)cc3Cl)cnc2c1Br` as the compound, how does the “hERG current change (%, negative = inhibition) at 1uM” value read?
Answer: The value was 9.57%.

Question: `Fc1ccccc1/C=C1\CCCC2=C1Nc1nnnn1C2c1ccccc1F` (stereo not shown) was tested. Which “hERG current change (%, negative = inhibition) at 1uM” value did it give?
Answer: Its value is 4.87%.

Question: Which “hERG current change (%, negative = inhibition) at 1uM” value does the source give for `CC(=O)Nc1cccc(-c2nnc(-c3ccccc3)o2)c1` here?
Answer: Its value is 4.2%.

Question: How did the “hERG current change (%, negative = inhibition) at 1uM” value turn out when `COc1ccc(NC(=O)C(CCS(C)(=O)=O)N2C(=O)c3ccccc3C2=O)cc1` (stereo not shown) was run?
Answer: Its value is -17.8%.

Question: Which “hERG current change (%, negative = inhibition) at 1uM” value does the source give for `Cn1c(CCNC(=O)c2ccccc2)nc2cc(NC(=O)C3CCCCC3)ccc21` here?
Answer: Its value is 0.73%.

Question: `CCOC(=O)c1ccccc1NC(=O)c1c(N)n(C)c(=O)[nH]c1=O` was tested. Which “hERG current change (%, negative = inhibition) at 1uM” value did it give?
Answer: The value was 11.6%.

Question: Which “hERG current change (%, negative = inhibition) at 1uM” value does the source give for `O=C(Nc1cc(Cl)cc(Cl)c1)c1cnn2cccnc12` here?
Answer: The value was 16.2%.

Question: For `COc1ccc(CC(=O)NCc2nnc(SCC(=O)c3ccc(OC)cc3)n2C)cc1`, which “hERG current change (%, negative = inhibition) at 1uM” value is on record?
Answer: Its value is 5%.

Question: How did the “hERG current change (%, negative = inhibition) at 1uM” value turn out when `CCN(CC)S(=O)(=O)c1ccc(N2CCOCC2)c(NC(=O)Cc2ccc(Cl)cc2)c1` was run?
Answer: The value was -0.184%.

Question: Which “hERG current change (%, negative = inhibition) at 1uM” value does the source give for `Cc1ccc(-n2ncc3c(NNC(=O)Cc4ccccc4)ncnc32)cc1` here?
Answer: The value was 16.2%.

Question: How did the “hERG current change (%, negative = inhibition) at 1uM” value turn out when `Cc1ccc(C(O)(CNCc2ccccc2)c2ccccc2)cc1` (stereo not shown) was run?
Answer: Its value is 10.9%.

Question: `COc1cccc(NC(=O)C2CCC(CNC(=O)[C@@H]3Cc4ccccc4CN3)CC2)c1` (stereo partly shown) was tested. Which “hERG current change (%, negative = inhibition) at 1uM” value did it give?
Answer: Its value is 9.4%.

Question: Which “hERG current change (%, negative = inhibition) at 1uM” value does the source give for `COc1cccc(CCN2CCC(CNS(=O)(=O)c3cc(-c4cc(C)no4)ccc3OC)CC2)c1` here?
Answer: The value was -66.3%.

Question: Which “hERG current change (%, negative = inhibition) at 1uM” value does the source give for `Cc1nn(Cc2ccccc2Cl)c(C)c1C(=O)NCCN1C(=O)S/C(=C\c2ccccc2)C1=O` here?
Answer: Its value is 8.92%.

Question: With `CCOc1ccc(NC2=C(Cl)C(=O)N(C3CCCCC3)C2=O)cc1` as the compound, how does the “hERG current change (%, negative = inhibition) at 1uM” value read?
Answer: Its value is 7.1%.

Question: For `COc1ccc(OC)c(CN2CCN(C(=O)c3cc(S(=O)(=O)Nc4ccccc4OC)ccc3C)CC2)c1`, which “hERG current change (%, negative = inhibition) at 1uM” value is on record?
Answer: The value was 10.1%.

Question: `CCC(C)NS(=O)(=O)c1ccc(F)c(C(=O)Nc2c(F)cc(F)cc2Br)c1` (stereo not shown) was tested. Which “hERG current change (%, negative = inhibition) at 1uM” value did it give?
Answer: Its value is -6.42%.

Question: For `CC(C)CN(C(=O)CSc1nc2ccccc2c(=O)n1C)C1CCS(=O)(=O)C1` (stereo not shown), which “hERG current change (%, negative = inhibition) at 1uM” value is on record?
Answer: Its value is -8.16%.

Question: Which “hERG current change (%, negative = inhibition) at 1uM” value does the source give for `COc1c(C(=O)Nc2ccc(Br)cn2)ccc2ccccc12` here?
Answer: The value was 4.43%.

Question: Which “hERG current change (%, negative = inhibition) at 1uM” value does the source give for `CCCc1ncc(CN2CCC(C(=O)Nc3cccc(-c4cscn4)c3)CC2)cn1` here?
Answer: Its value is 6.68%.

Question: How did the “hERG current change (%, negative = inhibition) at 1uM” value turn out when `CC(=O)N1CCN(S(=O)(=O)c2ccccc2)C1c1ccccc1` (stereo not shown) was run?
Answer: Its value is 8.99%.

Question: With `CCN(CC)S(=O)(=O)c1ccc2c(c1)oc(=O)n2CC(=O)NC1CCCCC1` as the compound, how does the “hERG current change (%, negative = inhibition) at 1uM” value read?
Answer: Its value is 13.2%.

Question: With `COc1ccc(C(CNC(=O)c2[nH]c(C)c(C(C)=O)c2C)N2CCOCC2)cc1` (stereo not shown) as the compound, how does the “hERG current change (%, negative = inhibition) at 1uM” value read?
Answer: The value was 7.66%.

Question: For `CCn1c(O)c(/C=N/N=C2CCCCC2)c2cc(C3=NNC(=O)CC3)ccc21`, which “hERG current change (%, negative = inhibition) at 1uM” value is on record?
Answer: The value was 10.6%.

Question: How did the “hERG current change (%, negative = inhibition) at 1uM” value turn out when `COc1cc(C(=O)N(Cc2cccnc2)Cc2cc3cc4c(cc3[nH]c2=O)OCCO4)cc(OC)c1OC` was run?
Answer: Its value is 13.8%.

Question: For `COc1ccc(CC(NC(C)=O)C(=O)NC2CCN(S(=O)(=O)c3cccc4ccccc34)CC2)cc1OC` (stereo not shown), which “hERG current change (%, negative = inhibition) at 1uM” value is on record?
Answer: The value was 9.86%.

Question: For `Cc1ccc(CCNC(=O)c2cc(S(=O)(=O)N3CCCCC3)c[nH]2)cc1`, which “hERG current change (%, negative = inhibition) at 1uM” value is on record?
Answer: The value was 4.34%.

Question: For `Cc1ccc2c(c1)[C@@H](O)C[C@@H](C)N2N=O`, which “hERG current change (%, negative = inhibition) at 1uM” value is on record?
Answer: Its value is 2.84%.

Question: `CCOC(=O)c1c(NC(=O)CSC(=S)N(C)C)sc(C)c1C` was tested. Which “hERG current change (%, negative = inhibition) at 1uM” value did it give?
Answer: The value was 10.7%.

Question: Which “hERG current change (%, negative = inhibition) at 1uM” value does the source give for `COc1cc(OC)cc(C(=O)N[C@H](C(=O)OCC(=O)Nc2ccc(OC)c(OC)c2)C(C)C)c1` here?
Answer: Its value is 11.4%.

Question: For `CCOC(=O)c1c(CN2CCN(c3ccccc3)CC2)oc2cc(Br)c(O)cc12.Cl`, which “hERG current change (%, negative = inhibition) at 1uM” value is on record?
Answer: The value was 18.6%.

Question: `Cc1cc(=O)oc2cc(OC(C)C(=O)NCc3ccccn3)ccc12` (stereo not shown) was tested. Which “hERG current change (%, negative = inhibition) at 1uM” value did it give?
Answer: Its value is 5.51%.

Question: For `CC(COc1ccccc1)N1CCC(CO)(Cc2ccccc2)CC1` (stereo not shown), which “hERG current change (%, negative = inhibition) at 1uM” value is on record?
Answer: The value was -13.3%.

Question: How did the “hERG current change (%, negative = inhibition) at 1uM” value turn out when `CC(=O)c1c(C)nc(-c2ccccc2)nc1NC(=O)C(C)C` was run?
Answer: The value was -3.98%.

Question: With `CCN(C(=O)CN1CCN(c2ccccc2O)CC1)c1c(N)n(Cc2ccccc2)c(=O)[nH]c1=O` as the compound, how does the “hERG current change (%, negative = inhibition) at 1uM” value read?
Answer: The value was 0.646%.

Question: How did the “hERG current change (%, negative = inhibition) at 1uM” value turn out when `CC(C)C(OC(=O)c1nsc(Cl)c1Cl)C(=O)NC1CCCCC1` (stereo not shown) was run?
Answer: Its value is -5.34%.

Question: `O=C(NC(=S)Nc1ccc2c(c1)OCO2)c1ccccc1` was tested. Which “hERG current change (%, negative = inhibition) at 1uM” value did it give?
Answer: The value was 10.6%.

Question: Which “hERG current change (%, negative = inhibition) at 1uM” value does the source give for `COc1cccc(NC(=S)N2CCC(NC(=O)c3ccco3)CC2)c1` here?
Answer: The value was -6.52%.

Question: Which “hERG current change (%, negative = inhibition) at 1uM” value does the source give for `N#CCSc1nnc(Nc2ccccc2)s1` here?
Answer: The value was 3.73%.

Question: How did the “hERG current change (%, negative = inhibition) at 1uM” value turn out when `COC(=O)CC/C(O)=C1\C(=O)CC(C)(C)CC1=NCCc1nc2ccccc2[nH]1` was run?
Answer: The value was 20.4%.

Question: `CC(NC(=O)[C@H](Cc1c[nH]c2ccccc12)NC(=O)[C@@H]1Cc2ccccc2CN1)c1ccccc1` (stereo partly shown) was tested. Which “hERG current change (%, negative = inhibition) at 1uM” value did it give?
Answer: The value was 2.22%.
